ETS1 binding intensity data for 63 sequences are collected here from the supplement of paper PMC10681739.

± gives the standard deviation of the averaged measurements. The full ranking holds about 4,100 sequences; the median of “arbitrary fluorescence units” is about 780, and the highest 2% start at about 22,000. The list shows a part of the results.

The target in the assay is T1, ETS1 (UniProt P14921).
T1 sequence: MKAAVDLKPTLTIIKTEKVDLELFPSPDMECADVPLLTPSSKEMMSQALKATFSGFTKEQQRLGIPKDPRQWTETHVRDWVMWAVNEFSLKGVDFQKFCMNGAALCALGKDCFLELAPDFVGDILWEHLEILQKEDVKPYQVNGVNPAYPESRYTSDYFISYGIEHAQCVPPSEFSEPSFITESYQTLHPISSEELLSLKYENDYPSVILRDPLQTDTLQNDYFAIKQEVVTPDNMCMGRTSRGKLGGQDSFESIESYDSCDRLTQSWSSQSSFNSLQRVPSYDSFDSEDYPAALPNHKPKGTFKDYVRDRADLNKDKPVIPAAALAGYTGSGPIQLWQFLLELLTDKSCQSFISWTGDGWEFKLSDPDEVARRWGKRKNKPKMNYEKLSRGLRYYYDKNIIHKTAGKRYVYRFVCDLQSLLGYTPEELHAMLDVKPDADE
Kind of assay: ETS1 binding intensity (PBM fluorescence), ETS1 alone (arbitrary fluorescence units); higher = stronger binding. Conditions: ETS1 concentration 1 nM; RUNX1 concentration 0 nM. The method in brief:
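Double-stranded Agilent 4 × 180k arrays held 36-bp genomic probes whose RUNX1 partner site was mutated, and these were incubated with 1 nM full-length recombinant human ETS1 in the absence of RUNX1 under standard PBM protocols. Bound protein was labelled with anti-ETS1 antibody (Cell Signaling Technology 14069) plus an Alexa488-conjugated secondary and read on a GenePix 4400A, with four spots printed per sequence. Binding level is reported as raw spot fluorescence intensity summarised over replicate spots.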
CCAGGGCCGGAAGTGCTGGTGGTGCTTTCCATCATG showed an ETS1 binding intensity of 14500.

AACACCACTTCCTACTGTGAAATCACACTGTATTTG had an ETS1 binding intensity of 4920.

For the sequence AGGCTTCCTGTTTTATCTCGTGTGTCTGGTGCACCA, the ETS1 binding intensity amounted to 17300.

With TGTGACAACCCCAGCCCCAAAACAAAGAGGAAACAC, the ETS1 binding intensity came out at 470.

GCACTCGGATGTTGGCCGTAGTTGGGGTTATAGTTG gave an ETS1 binding intensity of 615.

The sequence CTAGGAAGTGTCTGTAGGCGCAGCTGAGGGTCCGGG showed an ETS1 binding intensity of 379.

TGATTGCGATTTCGGTCGCTCTCCCGTGTTTCCCGG gave an ETS1 binding intensity of 311.

Sequence CTGCAGATGCATTTCCTTTTTGTGATAGCAAGCGTG yielded an ETS1 binding intensity of 3390.

Take CCCTCCGCGCCCAGCCCTGCCACTCTCGGAAATGGG: the ETS1 binding intensity was 420.

The sequence TCTGTCACCTCATCCAAGTGTATTTTCCTGACAGAG gave an ETS1 binding intensity of 443.

Sequence TTGTACTCTGGGGTTTCATTTCCTGCCCGTAAATGC showed an ETS1 binding intensity of 6450.

Consider ACGCAAACTACACCAGCCACGGACAGGCAGGAAGAG, for which the ETS1 binding intensity was 479.

As to CTCATGGGAAATGTAGTTTCTAAATCGCGGGCGCCC, the ETS1 binding intensity was determined as 363.

As for CAGGCAGATCAGACAACAGAAGCGGAAGAGGCGGGG, the ETS1 binding intensity stood at 834.

GCCACCTTACGACAGCTGTACAGAGCTTCCTTTAGC registered an ETS1 binding intensity of 390.

TTTCTGATTGTAGTTTCAAATTATTTCCTGTGTTGG: the ETS1 binding intensity worked out at 1770.

In turn, GATTAAGAGGAAGTGTGTGTGATTATTAACGCTGGA returned an ETS1 binding intensity of 1580.

As to GGCGGGGCATCCGTGTCCTTACGGTGCTGGGCAGCA, the ETS1 binding intensity turned out to be 1020.

For the sequence TGGGCAAGATATCCTGGAAGTGCTTAAAAAAAATTA, the ETS1 binding intensity was 1020.

GACATCTTCCGGTTGCTACAGGTTACGGCGGCTGCT came in with an ETS1 binding intensity of 12800.

Sequence ACAAGAGGAAGTGAGTCTACCCATGATGCGCTCACA had an ETS1 binding intensity of 2560.

As for CTGCCAGGAAGGGTTCTGGTTTAAGGTCTCCTCTTA, the ETS1 binding intensity came out at 424.

The sequence GGGGCACCAGACAAACCATGCCCTTTGTCTTCCTGC yielded an ETS1 binding intensity of 381.

In the case of GGATTCCGGTTAGCACGTCGCGTTCTGCCGTAGCAG, the ETS1 binding intensity worked out at 3440.

The sequence CGTTATTTCCGGGGCTGGGTTAACGCAGCGGGTCCG returned an ETS1 binding intensity of 14500.

As to TTATGCCTCAGGATGAACGAACCCCAAACACCCAGG, the ETS1 binding intensity was determined as 322.

On to CAGCCGTCATCATGGTGAAGGAGCAGTTCCGGGAGA, for which the ETS1 binding intensity was determined as 492.

GGCGCCTCTTTCCGCCCCCGCTCACAATCGAGCGCA: the ETS1 binding intensity was 1840.

CTTGGCAGTTCCGTCCACTTCAGCTGCAGCGTCCCT registered an ETS1 binding intensity of 972.

The sequence GTAAGATTCGGGGTTGAGCTTCCGTTTTACACTTGG registered an ETS1 binding intensity of 1390.

For TACTTCTTCCTGGCAGAGACCGGGAGTGCAGTCCGC, the ETS1 binding intensity came to 2410.

On to GGGTTCTCGCAGCAACACGTACCGGGAAGCGTTTGG, for which the ETS1 binding intensity is 310.

For the sequence TCGTGCAACTTCCCCAAATGTTGGAAGCTCGACTGC, the ETS1 binding intensity was found to be 847 ± 69.

On to AGGGCGCCGCTTCCGGGAGCCCCCAAGCGGCCTCCG, for which the ETS1 binding intensity is 9050.

In turn, AACACTATTTCCTTTCTTGCTGCTCACATTTTAACA showed an ETS1 binding intensity of 4990.

Regarding GGCCTCAGGAAACTTAACAGTTTTGGCAGAAGGTGA, the ETS1 binding intensity came out at 393.

For the sequence AGCACCCCACATCCTGCACCCCAGAACCCAGATCCC, the ETS1 binding intensity is 5960.

The sequence ACTGCCGAAGCCCAGGGGCCCGAGAAGGAAATCGCT had an ETS1 binding intensity of 367.

GCGGACAACGAGCCTCCTGGGTGCCGGACGCAGATG came in with an ETS1 binding intensity of 371.

For the sequence GGTGGAGGCGCTTGGCAGGGAGGAAGGAGGGTGCCG, the ETS1 binding intensity turned out to be 498.

For the sequence TGGTTCCGCCCTCGGTGCCTGCAGGGGACAGCGGAG, the ETS1 binding intensity was determined as 2520.

CAAATACAGTGTGATTTCACAGTAGGAAGTGGTGTT returned an ETS1 binding intensity of 387.

TCCTCTCCTTTCCGCGAGACCTTGCGCGCTTATCCA displayed an ETS1 binding intensity of 497.

Turning to CTTTCTGTCGAGGTCAGGTTTCCTCTCCTTTATGAA, the ETS1 binding intensity stood at 437.

Take GACAAAGCAAGCGCCAGGCAGATCCCGGAAGCCGCC: the ETS1 binding intensity turned out to be 549.

Regarding AAGGTCGAGGTCTCGGCTTCCCCGGAACTTTTTGCT, the ETS1 binding intensity turned out to be 295.

In turn, GCGGAGGCGGAAGTCGTGCTGCTGCTGAGCACGGCT returned an ETS1 binding intensity of 5100.

Consider TGCCTCTGAACCTCGCTCTCGCGAGTTTCCGTAGCC, for which the ETS1 binding intensity amounted to 363.

Sequence CAGCCCTCTTCCTGCCTGTCCGTGGCTGGTGAGGTT showed an ETS1 binding intensity of 5690.

Consider TTTACGGCGAGAGTCAAGTTCCCACATCCTGTTGAA, for which the ETS1 binding intensity was determined as 2640.

Take ATGACTCCAGGAAGATCCTCCTGTGAGCACTGCCCC: the ETS1 binding intensity was 369.

CCAACGACAGCTCGGCAGGCGCCACAGGAAGGGCCC showed an ETS1 binding intensity of 340.

Turning to ATTTGCTGCGACCCTCAGGCGCTATCCGCTGCCGGG, the ETS1 binding intensity was 296.

In turn, GCCATGGCCACTTCCTGCTTGTAACGACAGCCCAGA came in with an ETS1 binding intensity of 21300.

As for TGAGGTGCTAAAGCACCAAGCACTTCCTGCTGTTAG, the ETS1 binding intensity worked out at 3380.

Turning to TTGACCCCAAAGGAAGGGCAGATGGCAGGAAACAGG, the ETS1 binding intensity stood at 488.

The sequence CCCGCCGGAAGGACGCGTCTGCGTCTCTTCGGCGAG came in with an ETS1 binding intensity of 2680.

CAGAGGGTTATCCACCAACGGAAGCTCAATTTCAAC registered an ETS1 binding intensity of 642.

As for ACCTGCACTTCCTCCTCCCTAGATCGCACCCTTCTC, the ETS1 binding intensity worked out at 5560.

Regarding TCATGTACGGGAAGCCCAGCTCCCTCAGCGCGCCCA, the ETS1 binding intensity is 363.

TCAGCTGGGGTGGGAGGATCTCCTATCAGGATGGCT: the ETS1 binding intensity stood at 525.

As for CCGTGGGCGTTTAAAAGGCCCCGGATGTTCAGGGGG, the ETS1 binding intensity amounted to 1170.

For the sequence GGGTCGCGGCCTTCCGGCGAACGCGGCTACCGTGGA, the ETS1 binding intensity was found to be 2870.
